In all, about 310,000 compounds went through this assay and about 2,200 (0.71%) showed an effect of 50% or more. The effect is printed as a negative number. Some of the results follow.
What follows are molecules tested against human ether-à-go-go-related gene (hERG) potassium channel (human, UniProt Q12809) (assay: primary screen, population patch clamp on CHO cells stably expressing hERG).
Chain of human ether-à-go-go-related gene (hERG) potassium channel (Q12809 whole entry, looked up): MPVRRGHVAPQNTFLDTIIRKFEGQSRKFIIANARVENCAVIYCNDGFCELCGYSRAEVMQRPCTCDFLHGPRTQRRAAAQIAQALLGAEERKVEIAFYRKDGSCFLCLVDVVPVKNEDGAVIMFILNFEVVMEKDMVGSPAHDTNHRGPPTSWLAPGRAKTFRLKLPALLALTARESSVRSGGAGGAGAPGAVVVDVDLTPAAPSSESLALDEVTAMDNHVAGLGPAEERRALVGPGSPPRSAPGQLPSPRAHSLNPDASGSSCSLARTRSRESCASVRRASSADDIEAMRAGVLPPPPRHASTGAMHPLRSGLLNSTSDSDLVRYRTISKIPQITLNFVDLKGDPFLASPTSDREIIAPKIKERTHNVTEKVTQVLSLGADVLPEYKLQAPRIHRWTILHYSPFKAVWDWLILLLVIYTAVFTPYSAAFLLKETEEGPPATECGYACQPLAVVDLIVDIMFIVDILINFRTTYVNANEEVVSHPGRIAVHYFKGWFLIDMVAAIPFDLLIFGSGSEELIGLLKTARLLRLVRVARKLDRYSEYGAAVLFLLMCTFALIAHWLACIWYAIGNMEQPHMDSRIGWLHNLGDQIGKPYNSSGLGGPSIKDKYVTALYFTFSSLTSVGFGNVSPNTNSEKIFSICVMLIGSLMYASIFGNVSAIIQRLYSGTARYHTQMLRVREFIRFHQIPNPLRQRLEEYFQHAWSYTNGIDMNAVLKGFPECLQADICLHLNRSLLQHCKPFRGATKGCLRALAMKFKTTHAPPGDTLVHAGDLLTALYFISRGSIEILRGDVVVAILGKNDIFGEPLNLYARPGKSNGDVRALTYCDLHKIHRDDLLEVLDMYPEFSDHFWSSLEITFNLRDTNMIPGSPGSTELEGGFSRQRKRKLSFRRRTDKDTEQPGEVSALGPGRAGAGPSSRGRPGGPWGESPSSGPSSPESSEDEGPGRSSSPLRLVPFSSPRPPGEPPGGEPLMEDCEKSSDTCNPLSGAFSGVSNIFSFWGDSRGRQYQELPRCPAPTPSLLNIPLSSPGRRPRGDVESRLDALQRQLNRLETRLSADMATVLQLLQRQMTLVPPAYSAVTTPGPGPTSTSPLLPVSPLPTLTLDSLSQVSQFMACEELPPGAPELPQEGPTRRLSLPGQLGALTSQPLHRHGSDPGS

Row | SMILES | hERG current change (%, negative = inhibition) at 1uM
1 | O=C(NCc1nnc(SCC(=O)N2CCOCC2)o1)c1cccs1 | 7.46%
2 | Cc1ccc(-c2nc(CS(=O)CC(=O)NCc3ccc4c(c3)OCO4)c(C)o2)cc1 (stereo not drawn) | 1.76%
3 | Cc1cc(Cl)cc(C)c1OCC(=O)O | 13.7%
4 | COc1ccccc1C(=O)N/N=C(\C)c1ccc(NC(=O)C2CC2)cc1 | 5.66%
5 | O=C(Nc1nnc(C2CC2)s1)c1cccnc1Oc1ccc(Cl)cc1 | 13.6%
6 | Nc1c(NC(=O)CC[n+]2ccccc2)cccc1[N+](=O)[O-].[Cl-] | -3.55%
7 | CCCCOc1ccc(-c2cnc3ccccc3n2)cc1 | 18%
8 | Fc1ccc(CN2CCSCC2)cc1Br | 0.438%
9 | CCOCCCNC(=S)N1CCN(CC)CC1.O=C(O)C(=O)O | 18.1%
10 | CCOCCOc1cccc(C(=O)NC(c2ccccc2)C(C)C)c1 (stereo not drawn) | -1.14%
11 | Cc1cc(OC(C)C(=O)N2CCN(c3ccc(F)cc3)CC2)c2c(C)c(C)c(=O)oc2c1 (stereo not drawn) | -8.37%
12 | COc1ccccc1C(=O)OCC(=O)Nc1cc(S(=O)(=O)N2CCOCC2)ccc1N1CCCC1 | 12%
13 | CCN(CC(=O)Nc1ccccc1OC)CC(=O)Nc1ccccc1C(F)(F)F | 4.99%
14 | O=C1C(=O)N(CCS(=O)(=O)c2ccccc2)c2ccc(F)cc21 | 6.93%
15 | Cc1ccc(S(=O)(=O)NCCC(c2ccccc2)c2ccco2)cc1 (stereo not drawn) | 13.3%
16 | Cc1cccc(N2CCN(C(=O)/C=C/c3cccs3)CC2C)c1 (stereo not drawn) | 2.11%
17 | O=C(O)C(=O)O.c1ccc(COc2cccc(CN3CCCCC3)c2)cc1 | 8.85%
18 | CCN(CC(=O)NC1CC1)S(=O)(=O)c1ccccc1 | 10.3%
19 | Cc1onc(-c2ccccc2Cl)c1C(=O)N1CCC(Cc2ccccc2)CC1 | 14%
20 | Fc1ccc(NC(=S)Nc2ccc(Cl)cc2Cl)cc1 | 9.24%
21 | COc1ccc(C2CC(c3ccccc3)=NN2C(=O)CN2CCN(Cc3ccccc3)CC2)cc1 (stereo not drawn) | 5.15%
22 | CCN(CC)S(=O)(=O)c1ccc(-n2c(=O)c(C(C)C)c(C)n2C)cc1 | 17%
23 | CCCOc1ccc(-c2nc(-c3ccc(N)cc3)cs2)cc1 | 9.76%

Row | SMILES | hERG current change (%, negative = inhibition) at 1uM
24 | CN(CCOc1ccccc1)C(=O)c1ccc(N2CCCC2)c([N+](=O)[O-])c1 | 10.6%
25 | CN1CCC(N(C)C(=O)/C(C#N)=C/c2ccccc2)CC1.Cl | 14.2%
26 | CCC(=O)N1N=C(c2cccs2)CC1c1ccco1 (stereo not drawn) | 9.49%
27 | O=C(NCCN1CCOCC1)C1CC(=O)N(c2ccc(Cl)cc2)C1 (stereo not drawn) | 15.4%
28 | S=C(NC12CC3CC(CC(C3)C1)C2)N1CCCC1 | 13.5%
29 | CCN(CC)c1ccc(C(=O)NNC(=O)C2CSC3(C)CCC(=O)N23)cc1 (stereo not drawn) | 5.2%
30 | O=C(Nc1nccs1)c1ccc(S(=O)(=O)NCC2CCCCC2)cc1 | 3.75%
31 | CC(Oc1ccc(F)cc1)C(=O)Nc1ccccc1C(=O)N1CCCCC1 (stereo not drawn) | 4.71%
32 | C=CCc1cc(C=O)cc(OCC)c1O | 6.77%
33 | N#CCC(=O)Nc1cc(C(F)(F)F)ccc1N1CCOCC1 | 9.49%
34 | CCC(C(=O)O/N=C(\N)c1ccc(C)cc1)c1ccccc1 (stereo not drawn) | 6.84%
35 | COc1ccc(C2C(C(C)=O)=C(O)C(=O)N2CCc2ccccc2)c(OC)c1 (stereo not drawn) | 6.24%
36 | Cc1ccc(NC(=O)CCNS(=O)(=O)c2ccc3[nH]c(=O)oc3c2)c(C)c1 | 14.2%
37 | Cc1ccc(N2C(=O)CC(=O)NC2=O)cc1Cl | 11.4%
38 | C=CCOc1c(Cl)cc(C(=S)N2CCCC2)cc1OCC | 9.22%
39 | COc1ccc(-c2c(C)n([O-])c3c([n+]2=O)CCCCC3)cc1OC | 16.6%
40 | O=C1NCCCCC1NS(=O)(=O)c1ccc(F)c(F)c1 (stereo not drawn) | 9.71%
41 | COC(=O)CC1C(=O)NCCN1Cc1cn(-c2ccc(C)cc2)nc1-c1cccc(C)c1 (stereo not drawn) | 8.32%
42 | COc1ccc(C(C)=O)cc1COc1cccc2c1OC(C)(C)C2 | 3.79%
43 | O=C(NC(=S)NCc1ccccc1)c1ccc(Br)cc1 | 8.85%
44 | O=S(=O)(c1ccc(Cl)c(F)c1)N1CCC(c2nc(-c3ccncc3)no2)CC1 | -5.01%
45 | O=C(CSc1nc(-c2ccccc2)cc(C(F)(F)F)n1)N1CCOCC1 | 11.6%

Source: publication PMC4336329 (PLoS ONE, 2015)
